Source: PMC4336329 (PLoS ONE, 2015)
In all, about 310,000 compounds went through this assay and about 14,000 (4.5%) showed an effect of 50% or more. The effect is printed as a negative number. The list shows a part of the results.

Each molecule was assayed against human ether-à-go-go-related gene (hERG) potassium channel (human, UniProt Q12809) (assay: primary screen, population patch clamp on CHO cells stably expressing hERG).
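Also: peak tail current of the secondary pulse compared with the same well before compound.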

human ether-à-go-go-related gene (hERG) potassium channel, sequence (Q12809 whole entry, looked up): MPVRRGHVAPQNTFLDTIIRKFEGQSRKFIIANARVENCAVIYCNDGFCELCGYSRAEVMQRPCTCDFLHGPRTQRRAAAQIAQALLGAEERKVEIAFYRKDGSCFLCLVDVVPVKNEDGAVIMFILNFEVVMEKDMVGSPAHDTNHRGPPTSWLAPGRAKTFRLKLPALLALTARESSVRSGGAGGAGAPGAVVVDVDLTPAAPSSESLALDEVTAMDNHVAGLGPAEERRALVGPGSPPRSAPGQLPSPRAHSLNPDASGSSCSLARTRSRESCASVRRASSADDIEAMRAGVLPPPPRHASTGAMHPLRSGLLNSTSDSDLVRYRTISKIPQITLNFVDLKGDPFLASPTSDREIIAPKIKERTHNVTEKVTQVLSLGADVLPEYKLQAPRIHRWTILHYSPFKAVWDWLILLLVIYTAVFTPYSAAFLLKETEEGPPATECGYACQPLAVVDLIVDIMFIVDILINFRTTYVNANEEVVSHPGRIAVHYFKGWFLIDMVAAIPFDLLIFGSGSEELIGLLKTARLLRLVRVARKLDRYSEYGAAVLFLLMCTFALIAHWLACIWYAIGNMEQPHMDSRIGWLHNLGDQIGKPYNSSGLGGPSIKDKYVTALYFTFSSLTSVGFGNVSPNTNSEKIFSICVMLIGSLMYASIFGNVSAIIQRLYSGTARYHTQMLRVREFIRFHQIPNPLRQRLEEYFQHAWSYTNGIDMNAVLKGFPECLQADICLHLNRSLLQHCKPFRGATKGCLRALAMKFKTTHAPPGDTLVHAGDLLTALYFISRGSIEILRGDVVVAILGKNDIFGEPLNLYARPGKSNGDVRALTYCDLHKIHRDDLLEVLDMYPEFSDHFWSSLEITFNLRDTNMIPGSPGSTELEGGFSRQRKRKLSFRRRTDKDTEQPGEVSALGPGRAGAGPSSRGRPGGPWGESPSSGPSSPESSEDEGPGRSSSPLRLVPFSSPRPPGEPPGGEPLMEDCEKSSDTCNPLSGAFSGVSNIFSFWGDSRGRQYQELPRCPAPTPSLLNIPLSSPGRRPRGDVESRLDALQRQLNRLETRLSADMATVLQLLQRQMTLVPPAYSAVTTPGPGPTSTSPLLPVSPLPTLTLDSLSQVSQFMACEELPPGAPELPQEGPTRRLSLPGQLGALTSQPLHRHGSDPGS

Compound	hERG current change (%, negative = inhibition) at 10uM [%]
Cc1ccc(Cn2cc(/C=N/Nc3ccc([N+](=O)[O-])cn3)c3ccccc32)cc1	4.45
CN(c1cccc(Cl)c1)S(=O)(=O)c1cccc(C(=O)Nc2nc3ccccc3[nH]2)c1	1.34
CCCCc1nnc(NC(=O)c2ccc3[nH]c(=O)c(=O)[nH]c3c2)s1	-11.2
COc1cccc(/C=C2\Oc3cc(OCC(=O)N4CCC[C@H]4C(=O)O)ccc3C2=O)c1	4.68
COc1ccccc1C/C(N)=N/OC(=O)c1cccc([N+](=O)[O-])c1	-10.5
Cc1cccc(S(=O)(=O)NCC2CCCO2)c1 (stereo not shown)	12
CCCCCn1nc(C(=O)N(CCOC)c2c(N)n(CCCC)c(=O)[nH]c2=O)c2ccccc2c1=O	-3.44
CC(C)NC(=O)C(=O)NCCN1CCN(C(=O)c2ccc(C(C)(C)C)cc2)CC1	-3.01
O=C(NNC(=O)C1CC1)c1cc(Cl)nc2ccccc12	2.6
O=C(NCc1ccccc1)C1CCC(=O)N(CCCN2CCCC2=O)C1 (stereo not shown)	12.3
Cc1cccc(-c2noc(CCC(=O)NCc3ccccc3)n2)c1	-13.7
Cc1ccc(C(=O)N2CC3(C(C)C)CN(C(=O)c4ccc(C)cc4)CC(C(C)C)(C2)C3=O)cc1	-4.38
C=CCNS(=O)(=O)c1ccc(OCC(=O)OC)cc1	6.2
CN1CCN(Cc2cn[nH]c2-c2ccc(F)cc2F)[C@@H](c2ccccc2)C1	-18.7
O=C(O)c1ccccc1Nc1ccnc(C(F)(F)F)c1	14.5
CCOC(=O)CNS(=O)(=O)c1ccc(C(=O)O)cc1	8.42
O=C(CN1CCN(S(=O)(=O)c2cc(C(F)(F)F)ccc2Cl)CC1)N1CCc2ccccc2C1	-24.7
COc1cccc(-c2csc(N3CCN(CC(=O)Nc4ccc5c(c4)OCO5)CC3)n2)c1	2.71
Cc1[nH]c(=O)[nH]c(=O)c1S(=O)(=O)N1CCCC(C(=O)NCCc2ccc(Cl)cc2)C1 (stereo not shown)	-1.16
COc1cccc(Oc2ncnc(N)c2[N+](=O)[O-])c1	14.4
O=C(NCCN1CCOCC1)/C(=C\c1ccc(Br)cc1)NC(=O)c1cccs1	-67.4
Cc1ccccc1CC(=O)NC1CCN(C)CC1	8.62

Compound	hERG current change (%, negative = inhibition) at 10uM [%]
Nc1ccc(N2CCN(c3ccccc3)CC2)c(F)c1	21.7
O=C(CCc1ccccc1)NNC(=S)NC(=O)c1ccccc1	3.71
OC1CCCCC1Sc1nc2ccccc2s1 (stereo not shown)	5.97
CCN(CC)CCN(CC(=O)N(C1CCCCC1)C1CCCCC1)C(=O)c1ccco1.O=C(O)C(=O)O	23.2
COc1cc(C(=O)OCC(=O)Nc2ccc(SC(F)F)cc2)cc(OC)c1OC	-55.7
O=C(Nc1cccc(OC(F)(F)F)c1)c1ccc(Br)o1	-38.6
COc1ccc(Cn2nnnc2C(CC(C)C)N2CCN(c3ccccc3)CC2)cc1 (stereo not shown)	-4.87
COc1ccccc1N(CC(=O)N1CCCC1)S(=O)(=O)c1ccc(C)cc1	5.18
COc1ccc(Cl)cc1NC(=O)CN(C)C(=O)Cn1c(=O)oc2ccccc21	-15.5
O=c1c2ccccc2oc2cc(C#CC3(O)CCCCC3)ccc12	8.35
Cc1cc(C)cc(-c2nc(-c3ccncc3)no2)c1	7.71
Cc1ccc(OC(=O)Cn2c(C(F)(F)F)nc3ccccc32)cc1	1.11
CC(=O)c1sc(-c2ccccc2Cl)nc1C	12.5
O=C(NCc1ccc(F)cc1)C1CCN(S(=O)(=O)N2CCCCC2)CC1	-10.4
Cl.N[C@@H](CCC(=O)O)C(=O)O	9.48
Oc1ccccc1/C=N/N1CCCCC1	6.81
C#CC(C)OC(=O)Nc1cnccc1C(F)(F)F (stereo not shown)	11.5
CCOC(=O)C1=C(C)NC(=S)N(C(C)=O)C1c1ccc(OC)c(OC)c1 (stereo not shown)	10.6
COc1ccc(NC(=O)CN2CCN(S(=O)(=O)c3ccc(C(C)C)cc3)CC2)cc1OC	-66.5
Cc1cc2cc(CNC(=O)Nc3cccc(Cl)c3)ccc2n1C	19.4
COc1ccc(C(=O)N/C(=C\c2ccco2)C(=O)NCCCn2ccnc2)cc1	-19.7
